Test results reported in patent US20210238308A1 (Chugai, published 2021).

T1: PRYSPRY domain of human TRIM21 with N-terminal 6xHis tag (human)
T1 construct: Expressed in E. coli; also called hTRIM21; human TRIM21.PRYSPRY
T1 chain: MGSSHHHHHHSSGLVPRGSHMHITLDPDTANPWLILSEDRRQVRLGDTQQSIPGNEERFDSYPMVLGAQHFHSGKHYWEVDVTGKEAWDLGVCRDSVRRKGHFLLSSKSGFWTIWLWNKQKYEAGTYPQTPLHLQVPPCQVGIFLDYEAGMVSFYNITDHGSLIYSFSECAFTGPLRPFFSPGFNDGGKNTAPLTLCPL

T2: PRYSPRY domain of mouse TRIM21 with N-terminal 6xHis tag (mouse)
T2 construct: Expressed in E. coli; also called mTRIM21; mouse TRIM21.PRYSPRY
T2 chain: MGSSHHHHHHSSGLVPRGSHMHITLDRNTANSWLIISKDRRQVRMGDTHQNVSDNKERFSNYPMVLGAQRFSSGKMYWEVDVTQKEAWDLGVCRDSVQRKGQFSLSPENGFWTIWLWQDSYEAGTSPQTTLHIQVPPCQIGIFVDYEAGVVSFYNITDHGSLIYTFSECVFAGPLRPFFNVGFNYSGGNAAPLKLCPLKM

B1: MRAH-G1d/MRAL-KT0 L432Q (antibody, human IgG1, kappa)
heavy: QVQLQESGPGLVRPSQTLSLTCTVSGYSITSDHAWSWVRQPPGRGLEWIGYISYSGITTYNPSLKSRVTMLRDTSKNQFSLRLSSVTAADTAVYYCARSLARTTAMDYWGQGSLVTVSS[human IgG1 constant region with L432Q (EU numbers) omitted here]
light: DIQMTQSPSSLSASVGDRVTITCRASQDISSYLNWYQQKPGKAPKLLIYYTSRLHSGVPSRFSGSGSGTDFTFTISSLQPEDIATYYCQQGNTLPYTFGQGTKVEIKRTVAAPSVFIFPPSDEQLKSGTASVVCLLNNFYPREAKVQWKVDNALQSGNSQESVTEQDSKDSTYSLSSTLTLSKADYEKHKVYACEVTHQGLSSPVTKSFNRGEC
notes: copies: 2 + 2
B2: MRAH-G1d/MRAL-KT0 L432S (antibody, human IgG1, kappa)
heavy: QVQLQESGPGLVRPSQTLSLTCTVSGYSITSDHAWSWVRQPPGRGLEWIGYISYSGITTYNPSLKSRVTMLRDTSKNQFSLRLSSVTAADTAVYYCARSLARTTAMDYWGQGSLVTVSS[human IgG1 constant region with L432S (EU numbers) omitted here]
light: B1 light
notes: copies: 2 + 2
B3: MRAH-G1d/MRAL-KT0 L432N (antibody, human IgG1, kappa)
heavy: QVQLQESGPGLVRPSQTLSLTCTVSGYSITSDHAWSWVRQPPGRGLEWIGYISYSGITTYNPSLKSRVTMLRDTSKNQFSLRLSSVTAADTAVYYCARSLARTTAMDYWGQGSLVTVSS[human IgG1 constant region with L432N (EU numbers) omitted here]
light: B1 light
notes: copies: 2 + 2
B4: MRAH-G1d/MRAL-KT0 M428N (antibody, human IgG1, kappa)
heavy: QVQLQESGPGLVRPSQTLSLTCTVSGYSITSDHAWSWVRQPPGRGLEWIGYISYSGITTYNPSLKSRVTMLRDTSKNQFSLRLSSVTAADTAVYYCARSLARTTAMDYWGQGSLVTVSS[human IgG1 constant region with M428N (EU numbers) omitted here]
light: B1 light
notes: copies: 2 + 2
B5: MRAH-G1d/MRAL-KT0 L432T (antibody, human IgG1, kappa)
heavy: QVQLQESGPGLVRPSQTLSLTCTVSGYSITSDHAWSWVRQPPGRGLEWIGYISYSGITTYNPSLKSRVTMLRDTSKNQFSLRLSSVTAADTAVYYCARSLARTTAMDYWGQGSLVTVSS[human IgG1 constant region with L432T (EU numbers) omitted here]
light: B1 light
notes: copies: 2 + 2
B6: MRAH-G1d/MRAL-KT0 L432V (antibody, human IgG1, kappa)
heavy: QVQLQESGPGLVRPSQTLSLTCTVSGYSITSDHAWSWVRQPPGRGLEWIGYISYSGITTYNPSLKSRVTMLRDTSKNQFSLRLSSVTAADTAVYYCARSLARTTAMDYWGQGSLVTVSS[human IgG1 constant region with L432V (EU numbers) omitted here]
light: B1 light
notes: copies: 2 + 2
B7: MRAH-G1d/MRAL-KT0 M428Q (antibody, human IgG1, kappa)
heavy: QVQLQESGPGLVRPSQTLSLTCTVSGYSITSDHAWSWVRQPPGRGLEWIGYISYSGITTYNPSLKSRVTMLRDTSKNQFSLRLSSVTAADTAVYYCARSLARTTAMDYWGQGSLVTVSS[human IgG1 constant region with M428Q (EU numbers) omitted here]
light: B1 light
notes: copies: 2 + 2
B8: MRAH-G1d/MRAL-KT0 M428K (antibody, human IgG1, kappa)
heavy: QVQLQESGPGLVRPSQTLSLTCTVSGYSITSDHAWSWVRQPPGRGLEWIGYISYSGITTYNPSLKSRVTMLRDTSKNQFSLRLSSVTAADTAVYYCARSLARTTAMDYWGQGSLVTVSS[human IgG1 constant region with M428K (EU numbers) omitted here]
light: B1 light
notes: copies: 2 + 2
B9: MRAH-G1d/MRAL-KT0 L432K (antibody, human IgG1, kappa)
heavy: QVQLQESGPGLVRPSQTLSLTCTVSGYSITSDHAWSWVRQPPGRGLEWIGYISYSGITTYNPSLKSRVTMLRDTSKNQFSLRLSSVTAADTAVYYCARSLARTTAMDYWGQGSLVTVSS[human IgG1 constant region with L432K (EU numbers) omitted here]
light: B1 light
notes: copies: 2 + 2
B10: MRAH-G1d/MRAL-KT0 L432H (antibody, human IgG1, kappa)
heavy: QVQLQESGPGLVRPSQTLSLTCTVSGYSITSDHAWSWVRQPPGRGLEWIGYISYSGITTYNPSLKSRVTMLRDTSKNQFSLRLSSVTAADTAVYYCARSLARTTAMDYWGQGSLVTVSS[human IgG1 constant region with L432H (EU numbers) omitted here]
light: B1 light
notes: copies: 2 + 2
B11: MRAH-G1d/MRAL-KT0 L432W (antibody, human IgG1, kappa)
heavy: QVQLQESGPGLVRPSQTLSLTCTVSGYSITSDHAWSWVRQPPGRGLEWIGYISYSGITTYNPSLKSRVTMLRDTSKNQFSLRLSSVTAADTAVYYCARSLARTTAMDYWGQGSLVTVSS[human IgG1 constant region with L432W (EU numbers) omitted here]
light: B1 light
notes: copies: 2 + 2
B12: MRAH-G1d/MRAL-KT0 L432Y (antibody, human IgG1, kappa)
heavy: QVQLQESGPGLVRPSQTLSLTCTVSGYSITSDHAWSWVRQPPGRGLEWIGYISYSGITTYNPSLKSRVTMLRDTSKNQFSLRLSSVTAADTAVYYCARSLARTTAMDYWGQGSLVTVSS[human IgG1 constant region with L432Y (EU numbers) omitted here]
light: B1 light
notes: copies: 2 + 2

Assays:
Assay in all cases: SPR, Protein L capture
[1] = biological target: T1, PRYSPRY domain of human TRIM21 with …
[2] = biological target: T2, PRYSPRY domain of mouse TRIM21 with …
human FcRn = biological target: T3, human FcRn (human, UniProt P55899 fragment; P61769 fragment, limits assumed)
T3 construct: also called hFcRn

human FcRn, sequence (P55899 24-290 limits assumed, form in doubt, chain 1 of 2): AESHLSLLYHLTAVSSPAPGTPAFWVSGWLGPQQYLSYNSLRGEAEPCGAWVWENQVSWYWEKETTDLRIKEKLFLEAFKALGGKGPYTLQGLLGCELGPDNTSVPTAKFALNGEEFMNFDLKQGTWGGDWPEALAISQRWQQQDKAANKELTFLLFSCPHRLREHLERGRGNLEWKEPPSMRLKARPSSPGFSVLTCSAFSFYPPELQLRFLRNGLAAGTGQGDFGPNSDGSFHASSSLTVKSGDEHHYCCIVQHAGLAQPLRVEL
human FcRn, sequence (P61769 21-119 limits assumed, form in doubt, chain 2 of 2, further chain): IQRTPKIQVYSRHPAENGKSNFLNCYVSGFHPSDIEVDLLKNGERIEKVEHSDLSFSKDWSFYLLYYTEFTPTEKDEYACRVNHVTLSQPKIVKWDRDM

| Binder | hTRIM21 binding level ratio (variant/control antibody) [1] | mTRIM21 binding level ratio (variant/control antibody) [2] | hFcRn binding level ratio (variant/control antibody) (human FcRn) |
| --- | --- | --- | --- |
| B1 | 1.2 | 2.22 | 0.61 |
| B2 | 0.67 | 2.16 | 0.03 |
| B3 | 0.462 | 1.61 | 0.57 |
| B4 | 0.891 | 2.75 | 0.52 |
| B5 | 0.752 | 2.76 | 0.64 |
| B6 | 0.848 | 2.67 | 0.17 |
| B7 | 0.919 | 2.02 | 0.3 |
| B8 | 0.66 | 0.878 | 0.31 |
| B9 | 0.472 | 2.01 | 0 |
| B10 | 0.864 | 1.81 | 0.05 |
| B11 | 0.297 | 0.139 | 0.25 |
| B12 | 0.673 | 0.695 | 0.43 |
